From paper PMC4752459
No constants are given. Whether binding was seen depends on the method and setting. Binding seen in cells or lysates may run through a third protein. Some binding calls cover weakened binding; strength is not graded here. Where a sequence is shown, tags or fusion partners need not be part of it. Blank lines part the entries; values can stand above or below the binder they belong to.

Protein sequences, listed by entry. Tags and fused reporters are not part of them. Lines headed by an entry give the natural chain unless they say otherwise; changes in a name come on top.
UniProt P32458: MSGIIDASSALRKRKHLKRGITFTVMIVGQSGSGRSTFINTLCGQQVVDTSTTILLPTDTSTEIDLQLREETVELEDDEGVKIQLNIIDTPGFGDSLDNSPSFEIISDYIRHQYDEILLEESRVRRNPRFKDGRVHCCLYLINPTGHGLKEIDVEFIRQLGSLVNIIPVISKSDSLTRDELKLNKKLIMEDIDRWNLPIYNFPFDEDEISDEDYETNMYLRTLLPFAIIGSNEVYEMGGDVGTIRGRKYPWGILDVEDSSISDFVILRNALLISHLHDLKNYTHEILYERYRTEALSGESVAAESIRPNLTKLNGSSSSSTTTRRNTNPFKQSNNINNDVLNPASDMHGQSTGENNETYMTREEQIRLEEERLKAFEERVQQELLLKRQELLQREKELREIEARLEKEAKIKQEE
UniProt P32468: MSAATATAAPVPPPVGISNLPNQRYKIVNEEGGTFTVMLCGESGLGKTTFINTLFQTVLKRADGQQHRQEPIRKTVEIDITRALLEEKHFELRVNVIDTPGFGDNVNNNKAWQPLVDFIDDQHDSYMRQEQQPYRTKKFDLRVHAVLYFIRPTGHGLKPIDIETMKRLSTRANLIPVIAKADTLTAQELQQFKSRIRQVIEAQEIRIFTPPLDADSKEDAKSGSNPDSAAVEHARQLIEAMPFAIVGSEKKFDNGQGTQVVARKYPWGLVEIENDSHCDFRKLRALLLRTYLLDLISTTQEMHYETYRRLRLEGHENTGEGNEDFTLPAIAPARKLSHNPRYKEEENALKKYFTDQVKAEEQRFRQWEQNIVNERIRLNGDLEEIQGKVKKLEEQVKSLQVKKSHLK
UniProt P32457: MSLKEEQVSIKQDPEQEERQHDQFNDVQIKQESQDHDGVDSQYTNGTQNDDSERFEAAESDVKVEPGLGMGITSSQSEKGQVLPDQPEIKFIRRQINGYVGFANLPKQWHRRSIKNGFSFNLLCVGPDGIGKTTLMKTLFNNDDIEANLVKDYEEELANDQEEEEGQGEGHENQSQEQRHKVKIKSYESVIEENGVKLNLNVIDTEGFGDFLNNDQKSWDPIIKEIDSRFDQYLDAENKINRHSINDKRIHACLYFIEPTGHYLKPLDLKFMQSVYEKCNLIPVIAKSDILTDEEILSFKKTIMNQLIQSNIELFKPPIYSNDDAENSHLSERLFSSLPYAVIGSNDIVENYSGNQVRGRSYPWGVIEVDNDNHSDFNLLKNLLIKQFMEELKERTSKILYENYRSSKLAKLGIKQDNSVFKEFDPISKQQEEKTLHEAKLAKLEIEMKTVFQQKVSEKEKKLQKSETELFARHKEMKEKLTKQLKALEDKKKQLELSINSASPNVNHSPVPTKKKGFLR
UniProt P25342: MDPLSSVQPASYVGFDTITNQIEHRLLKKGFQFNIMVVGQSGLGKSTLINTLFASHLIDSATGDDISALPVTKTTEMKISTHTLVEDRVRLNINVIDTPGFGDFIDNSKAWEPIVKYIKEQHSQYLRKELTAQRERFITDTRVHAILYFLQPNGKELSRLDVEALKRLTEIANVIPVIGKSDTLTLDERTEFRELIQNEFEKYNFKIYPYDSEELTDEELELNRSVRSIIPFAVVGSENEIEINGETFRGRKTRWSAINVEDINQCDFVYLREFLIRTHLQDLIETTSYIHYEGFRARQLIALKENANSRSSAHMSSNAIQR

Molecular target: recombinant SNAP-tagged yeast septin rods (S. cerevisiae) (UniProt P32458+P32468+P32457+P25342)
Experiment: pull-down; SNAP-tagged septin rods coupled to benzylguanine-Sepharose, blocked with BSA, incubated with yeast extract 2 h at 8°C; 50 mM Tris pH 8.0, 300 mM NaCl; 6his-SNAP beads as control; Western blot with anti-protein A or anti-GFP; only the target purified

binding: binds
B1: Ste20-TAP (protein, UniProt Q03497 1-939)
chain: MSNDPSAVSELPDKDSLDNGISNDNERAMGGNGDGGDGLRLPRTTGTLNVNALQKGTNAAHEAGGYKSMDPAKNAETTNDDDNNVVSLDDPIQFTRVSSSSVISGMSSSMSPHSNIDETKSLEAVTPNINTSNITPDHSADNTFSTINASESDHQFNDTLLSKLSLTDSTETIENNATVKHQQPVASSTVNSNKSSTDIRRATPVSTPVISKPSMTTTPRQINSASHSLSNPKHKQHKPKVKPSKPEAKSKPVSVKKSFPSKNPLKNSSPPKKQTEKSYYSSSSKKRKSGSNSGTLRMKDVFTSFVQNIKRNSQDDKRASSSSNNSSSSSITTALRISTPYNAKHIHHVGVDSKTGEYTGLPEEWEKLLTSSGISKREQQQNMQAVMDIVKFYQDVTETNGEDKMFKTFNTTTGLPGSPQVSTPPANSFNKFPPSTSDSHNYGSRTGTPMSNHVMSPTLNTDSSSANGKFIPSRPAPKPPSSASASAPIIKSPVMNSAANVSPLKQTHAPTTPNRTSPNRSSISRNATLKKEEQPLPPIPPTKSKTSPIISTAHTPQQVAQSPKAPAQETVTTPTSKPAQARSLSKELNEKKREERERRKKQLYAKLNEICSDGDPSTKYANLVKIGQGASGGVYTAYEIGTNVSVAIKQMNLEKQPKKELIINEILVMKGSKHPNIVNFIDSYVLKGDLWVIMEYMEGGSLTDVVTHCILTEGQIGAVCRETLSGLEFLHSKGVLHRDIKSDNILLSMEGDIKLTDFGFCAQINELNLKRTTMVGTPYWMAPEVVSRKEYGPKVDIWSLGIMIIEMIEGEPPYLNETPLRALYLIATNGTPKLKEPENLSSSLKKFLDWCLCVEPEDRASATELLHDEYITEIAEANSSLAPLVKLARLKKVAENMDADEDNDDDNDNEHINKTNNCDDNNDSKETVNLDVTEDDKQK

binding: binds
B2: Bud4-TAP (protein, UniProt P47136 1-1447)
chain: MHDAESTVDSLLKEIDNEMEQTKSNITQNGSEDTPHNWKLPLQEIGDDTMEMLVKHNTRSNATENSRGRSPSKMSTISNESLNLGLLRVNSELEESPAAVHQERIKNSVANGALGHANSPKVLNNLKNMAQDIDKLARDEEKPVKLSSSPLKFTLKSTQPLLSYPESPIHRSSIEIETNYDDEDEEEEDAYTCLTQSPQILHSPSRIPITNAVSINKLNLDFTLNPNESDKSLVSDTSVDSTGRELDTKTIPELPFCMSSTPEMTPVDEKCNLPSKLLNTSNNSHSDSRSPTASVEDLNISTNLPGADSSQNNPVTTDADALIENDVVRDLQQNMEHIDDAFDEKKVLDEGCSNEPVTFLGENDTRSIVYSNKGTNANVQEFSQEDSLAHSEPKFKDLNATSDDVWNEDKETDANISTSTKSEESYIADYKVTRQEDWDTKKLHQESEHANEQPAIIPQKDSSEETFTELNNESEFQRNFKDGEEYRIVQHEESLYGQRTKSPEENIINGSEIGVDHGEAAEVNEPLAKTSAEEHDLSSSCEDQSVSEARNKDRIEEKEVETKDENIETEKDESEYHKVEENEEPEHVPLLPPLPRWEEIQFNEPFIDENDTSNDSIDLTRSMKPSDYISIWHIQEEEIKSNSPESIANSQFSQQSSITTASTVDSKKDNGSTSFKFKPRIVSRSRIYNPKSRVSSLNYYDNEDYILSNSEWNALDPMRRNTLISKRIQDNIRTQKGHAPLIRPSIMKLNGEDSGFQNHFLEVEQPQEHENIPLSTHLSEQDITTNVGLDEQKLPTNTQDEAEISIREIESAGDITFNRGDLLSLSFDEELGQDFANFLDALDHDSTSFNHGPDDSSSFQRDSSKKSFNSLWESSYELKPPPSIRKQPIAPDVLQKLLESDTKDDADLEKIREERITEPRTGLGIGMLKTPVKDVSIALAASIKGYEASFSDTDSRPEGMNNSDAITLNMFDDFEEDKMTPSTPVRSISPIKRHVSSPFKVVKAGNKQENNEINIKAEEEIEPMTQQETDGLKQDIPPLLAQTKDNVEAKEETITQLEEPQDVEQEFPDMGTLYLSIKAISTLALYGTKSHRATYAIVFDNGENVVQTPWESLPYDGNIRINKEFELPIDFKGKAETSSASSERDSYKKCVITLKCKYEKPRHELVEIVDKVPVGKSFFGKTKYKFEKKYVQKKPKQDEWDYLFAQDGSFARCEIEINEEFLKNVAFNTSHMHYNMINKWSRIADKIHGSKRLYELPRKAPHKVASLDVEACFLERTSAFEQFPKQFSLVNKIVSKYKLQQNIYKEGYLLQDGGDLKGKIENRFFKLHGSQLSGYHEISRKAKIDINLLKVTKVLRNEDIQADNGGQRNFTDWVLFNECFQLVFDDGERITFNAECSNEEKSDWYNKLQEVVELNVFHQPWVKKYCEKLAEEEKTRTTGHNLKQDFN

binding: binds
B3: Syp1-TAP (protein, UniProt P25623 1-870)
chain: MTEQRTKYADSILTTKSPYEATETIRIRLSQVKLLNKDFYLLFKELANLKRNYAQQLRKIIAENEDITKILNAQMIESNVLTPQEMSAFRFNSLGELRNVWDTVIEELKSDLKSSTEYYNTLDQQVVRELKESVENNTSWRESKDLHSKLSKNAASIEHYSKNNENSSHLEEARRQWDQQSPYLFELFETIDYNRLDTLKNCMLRFQTSFSDYLLNTTKECETVMTKFLAFEPQSEIDRFAKDASQYNFQLSSSSKEVVPNNASPASATGARPVSVSNGAANTEREKKSPQKDKRKSAFGNIGHRLASASSSLTHNDLMNNEFSDSTNNSSLKSKKSSHTLRSKVGSIFGRNKTKNKRQQQSSSNSHIQASITETPNNSSTRVSSTATSSIYQKQRRPTYSSSKSNNWTPGEASDTPPLPPHATPKNVDAPVTADTPPAQTFTPSEVPPSTPQQSSPPTAKEPDSSNLPKTVPISISQPPLQPQSKTKPLPVEPASPSISLPTATVDNQPSGQVDSRPLHIRAPALPPSRKQNFIHNRDSQLYDSLPNHGSGATPTSSSLSSIPQERPVSTLSSQITGELRELNPQATGSSTSLVGQSLFQHSSLDTSQFGLNASIAEVLNASFKDGMLQNSQLIGEIALNYLPNSVMNSPLPIGINLRINNGAKFEKVILNQAFIERVAPEEFKVNPSFIDSRTLGAIKYSIKEPIAPIVIHPVWRFESHQASVVLTVKMSPSLPDEISQIVIEDLVVFVNIDGANATSALSKPQGSFSKEKKRITWRFKEPVVLTRNGEGQRLIARFITDGLAHESAKGVITKFTISETDNVALPHSGAGSGITLTCQELDENNPFGGEWLDVNTKRTLTTGNYHGLA

binding: binds
B4: GFP tagged Vps1 (protein, UniProt P21576 1-704)
chain: MDEHLISTINKLQDALAPLGGGSQSPIDLPQITVVGSQSSGKSSVLENIVGRDFLPRGTGIVTRRPLVLQLINRRPKKSEHAKVNQTANELIDLNINDDDKKKDESGKHQNEGQSEDNKEEWGEFLHLPGKKFYNFDEIRKEIVKETDKVTGANSGISSVPINLRIYSPHVLTLTLVDLPGLTKVPVGDQPPDIERQIKDMLLKYISKPNAIILSVNAANTDLANSDGLKLAREVDPEGTRTIGVLTKVDLMDQGTDVIDILAGRVIPLRYGYIPVINRGQKDIEHKKTIREALENERKFFENHPSYSSKAHYCGTPYLAKKLNSILLHHIRQTLPEIKAKIEATLKKYQNELINLGPETMDSASSVVLSMITDFSNEYAGILDGEAKELSSQELSGGARISYVFHETFKNGVDSLDPFDQIKDSDIRTIMYNSSGSAPSLFVGTEAFEVLVKQQIRRFEEPSLRLVTLVFDELVRMLKQIISQPKYSRYPALREAISNQFIQFLKDATIPTNEFVVDIIKAEQTYINTAHPDLLKGSQAMVMVEEKLHPRQVAVDPKTGKPLPTQPSSSKAPVMEEKSGFFGGFFSTKNKKKLAALESPPPVLKATGQMTERETMETEVIKLLISSYFSIVKRTIADIIPKALMLKLIVKSKTDIQKVLLEKLYGKQDIEELTKENDITIQRRKECKKMVEILRNASQIVSSV

binding: binds
B5: Sfb3-TAP (protein, UniProt P38810 1-929)
chain: MSQQNILAASVSALSLDESTVHTGGASSKKSRRPHRAYHNFSSGTVPTLGNSPYTTPQLNQQDGFQQPQAFTPKQFGGFNNGSGSVMSTPVMVSQERFGASEASSPYGQSMLDMTAPQPTSHIVPTQRFEDQAQYLQRSFETCRDSVPPLPTTQFYCVDQGSCDPHLMSLSMYNIPESEHLRAATKLPLGLTIQPFSTLTPNDAEVPTIPLPMDGTPLRCRRCRAYANPKFQFTYDSSVICNICRVKMQVPGEHFAPMGPNGQRSDLNEKSELLHGTVDFLVPSIYNAIQEKELLPLHYVFLIDVSLLANENGSSLAMVEGVRSCIEYISDFQPNCEVAIIVYDNKLRFFNLRPDLDNAQEYIVSELDDVFLPFYNGLFVKPGNSMKIINDTLIKISGYISTDKYSHVPQVCYGSALQAAKLALDTVTGGQGGKIICSLNSLPTIGNGNLSLKRDNAHIAHVKCDNGFYKKLASDFLKSYISLDLYVTNAGFIDMATVGHPVEMTSGILKYYPHFQQETDAFTLVNDMVTNVSNIVGYQALLKVRCSTGLSVEQYYCDSSDNTDHDPIIPVLTRDTTLDVLLKYDSKIKTGTDVHFQTALLYTDIDGVRKVRSINTSGAVSNNIREIFKFINQNPVMRIMIKDVIKTLGDCDFVKIRRLIDDKMVEILTQYRGLVSSNSSTQLILPDSIKTLPAYMLAFEKSELMKPNAQSTRGNERIYDLLKYDSLNSAQLCYKLYPQIVPFHVLLEETDLTFYDANDKLLQINSSSINNLSVRASHSNFINGGCYLIFQGDTIYLWFNENTNRMLLQDLLSVDESLPVSQISLFSGTLPETGTSINQKASNVIKNWQQVVNKSSLPLVLLRPNVDQYYSNVMSQLLCEDKTVNRIESYDNYLVIMHKKIQEKLQKDDFIKVSTAATHENIHQKFVQF

binding: binds
B6: Sla2-TAP (protein, UniProt P33338 1-968)
chain: MSRIDSDLQKALKKACSVEETAPKRKHVRACIVYTWDHQSSKAVFTTLKTLPLANDEVQLFKMLIVLHKIIQEGHPSALAEAIRDRDWIRSLGRVHSGGSSYSKLIREYVRYLVLKLDFHAHHRGFNNGTFEYEEYVSLVSVSDPDEGYETILDLMSLQDSLDEFSQIIFASIQSERRNTECKISALIPLIAESYGIYKFITSMLRAMHRQLNDAEGDAALQPLKERYELQHARLFEFYADCSSVKYLTTLVTIPKLPVDAPDVFLINDVDESKEIKFKKREPSVTPARTPARTPTPTPPVVAEPAISPRPVSQRTTSTPTGYLQTMPTGATTGMMIPTATGAANAIFPQATAQMQPDFWANQQAQFANEQNRLEQERVQQLQQQQAQQELFQQQLQKAQQDMMNMQLQQQNQHQNDLIALTNQYEKDQALLQQYDQRVQQLESEITTMDSTASKQLANKDEQLTALQDQLDVWERKYESLAKLYSQLRQEHLNLLPRFKKLQLKVNSAQESIQKKEQLEHKLKQKDLQMAELVKDRDRARLELERSINNAEADSAAATAAAETMTQDKMNPILDAILESGINTIQESVYNLDSPLSWSGPLTPPTFLLSLLESTSENATEFATSFNNLIVDGLAHGDQTEVIHCVSDFSTSMATLVTNSKAYAVTTLPQEQSDQILTLVKRCAREAQYFFEDLMSENLNQVGDEEKTDIVINANVDMQEKLQELSLAIEPLLNIQSVKSNKETNPHSELVATADKIVKSSEHLRVDVPKPLLSLALMIIDAVVALVKAAIQCQNEIATTTSIPLNQFYLKNSRWTEGLISAAKAVAGATNVLITTASKLITSEDNENTSPEQFIVASKEVAASTIQLVAASRVKTSIHSKAQDKLEHCSKDVTDACRSLGNHVMGMIEDDHSTSQQQQPLDFTSEHTLKTAEMEQQVEILKLEQSLSNARKRLGEIRRHAYYNQDDD
